{"source": "the supplement of paper PMC12645437", "about": "“Orthogonal IMiD-Degron Pairs Induce Selective Protein Degradation in Cells” (ACS Chemical Biology, 2025)", "note": "Some of the results follow.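 Also: jurkat cells carrying a lentiviral library of mutant zinc finger degrons fused to EGFP plus mCherry, mCherry+ cells FACS sorted, degron abundance counted by next-generation sequencing.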"}
{"biological_target": "no compound (DMSO)", "experiment": "log2 fold change of degron read counts, EGFP-low vs EGFP+ sorted cells; higher = lower degron-EGFP level without compound (poor expression or instability)", "settings": "compound: DMSO control; 18 h"}
{"sequence": "FDCPVCGAKFTQKGNLLRHIKL", "log2 fold change of degron read counts": -1.22}
{"sequence": "FYCDICGADFTQKGNLLRHIKL", "log2 fold change of degron read counts": -1.78}
{"sequence": "LVCPICGFLCTQKGNLLRHIKL", "log2 fold change of degron read counts": 1.35}
{"sequence": "FQCEICGHNFTQKGNLLRHIKL", "log2 fold change of degron read counts": -1.12}
{"sequence": "LVCEICGFICTQKGNLLRHIKL", "log2 fold change of degron read counts": 0.601}
{"sequence": "FDCNVCGAAFTQKGNLLRHIKL", "log2 fold change of degron read counts": -1.67}
{"sequence": "FACDVCGASFTQKGNLLRHIKL", "log2 fold change of degron read counts": -1.35}
{"sequence": "FQCDVCGAMFTQKGNLLRHIKL", "log2 fold change of degron read counts": -0.783}
{"sequence": "FTCPICGAPFTQKGNLLRHIKL", "log2 fold change of degron read counts": 0.495}
{"sequence": "FACDVCGARFTQKGNLLRHIKL", "log2 fold change of degron read counts": -1.06}
{"sequence": "FNCEVCGADFTQKGNLLRHIKL", "log2 fold change of degron read counts": -2.16}
{"sequence": "FFCPQCGAGFTQKGNLLRHIKL", "log2 fold change of degron read counts": 0.0377}
{"sequence": "FCCDQCGANFTQKGNLLRHIKL", "log2 fold change of degron read counts": -1.99}
{"sequence": "FKCEICGASFTQKGNLLRHIKL", "log2 fold change of degron read counts": -0.947}
{"sequence": "FYCNVCGACFTQKGNLLRHIKL", "log2 fold change of degron read counts": -0.0945}
{"sequence": "FACPQCGAVFTQKGNLLRHIKL", "log2 fold change of degron read counts": -0.178}
{"sequence": "FLCDVCGADFTQKGNLLRHIKL", "log2 fold change of degron read counts": -1.16}
{"sequence": "FYCPICGRSFTQKGNLLRHIKL", "log2 fold change of degron read counts": -3.25}
{"sequence": "FLCPICGATFTQKGNLLRHIKL", "log2 fold change of degron read counts": -0.199}
{"sequence": "FECNQCGHGFTQKGNLLRHIKL", "log2 fold change of degron read counts": -0.795}
{"sequence": "FRCEICGAVFTQKGNLLRHIKL", "log2 fold change of degron read counts": -0.106}
{"sequence": "FHCPVCGAMFTQKGNLLRHIKL", "log2 fold change of degron read counts": -0.184}
{"sequence": "FLCPICGRHFTQKGNLLRHIKL", "log2 fold change of degron read counts": 0.0419}
{"sequence": "FFCNQCGHSFTQKGNLLRHIKL", "log2 fold change of degron read counts": 0.344}
{"sequence": "FYCPICGHLFTQKGNLLRHIKL", "log2 fold change of degron read counts": 0.714}
{"sequence": "FGCNICGAYFTQKGNLLRHIKL", "log2 fold change of degron read counts": 0.719}
{"sequence": "FFCEICGHLFTQKGNLLRHIKL", "log2 fold change of degron read counts": 0.5}
{"sequence": "FLCPICGHYFTQKGNLLRHIKL", "log2 fold change of degron read counts": 0.213}
{"sequence": "FACDICGAAFTQKGNLLRHIKL", "log2 fold change of degron read counts": -1.63}
{"sequence": "FWCNQCGREFTQKGNLLRHIKL", "log2 fold change of degron read counts": 0.1}
{"sequence": "FHCPQCGALFTQKGNLLRHIKL", "log2 fold change of degron read counts": -0.308}
{"sequence": "FCCSVCGHYFTQKGNLLRHIKL", "log2 fold change of degron read counts": 0.429}
{"sequence": "FWCEICGAAFTQKGNLLRHIKL", "log2 fold change of degron read counts": -1.05}
{"sequence": "FQCNICGADFTQKGNLLRHIKL", "log2 fold change of degron read counts": -0.71}
{"sequence": "FWCEICGRSFTQKGNLLRHIKL", "log2 fold change of degron read counts": -0.937}
{"sequence": "FLCDQCGAYFTQKGNLLRHIKL", "log2 fold change of degron read counts": -0.413}
{"sequence": "LACPICGFICTQKGNLLRHIKL", "log2 fold change of degron read counts": 1.28}
{"sequence": "FGCDICGAQFTQKGNLLRHIKL", "log2 fold change of degron read counts": -1.3}
{"sequence": "FCCNQCGASFTQKGNLLRHIKL", "log2 fold change of degron read counts": -0.195}
{"sequence": "LICPICGFYCTQKGNLLRHIKL", "log2 fold change of degron read counts": 1.9}
{"sequence": "FSCEICGARFTQKGNLLRHIKL", "log2 fold change of degron read counts": -1.01}
{"sequence": "FDCNQCGHEFTQKGNLLRHIKL", "log2 fold change of degron read counts": 0.136}
{"sequence": "LRCPICGFKCTQKGNLLRHIKL", "log2 fold change of degron read counts": 0.971}
{"sequence": "LLCEICGFKCTQKGNLLRHIKL", "log2 fold change of degron read counts": 0.168}
{"sequence": "FTCPVCGAWFTQKGNLLRHIKL", "log2 fold change of degron read counts": 0.486}
{"sequence": "FWCNQCGHCFTQKGNLLRHIKL", "log2 fold change of degron read counts": 1.16}
{"sequence": "FVCPICGRCFTQKGNLLRHIKL", "log2 fold change of degron read counts": -0.0355}
{"sequence": "FKCEICGHPFTQKGNLLRHIKL", "log2 fold change of degron read counts": -0.322}
{"sequence": "FRCDQCGAHFTQKGNLLRHIKL", "log2 fold change of degron read counts": -0.377}
{"sequence": "FQCPQCGAEFTQKGNLLRHIKL", "log2 fold change of degron read counts": -1.66}
